Measured values taken from PubChem BioAssay AID445 (National Center for Advancing Translational Sciences (NCATS), 2006).
About 40 (0.04%) of roughly 110,000 compounds were called active. The shares of active, inactive and inconclusive entries below differ from those in the screen. Calls follow the shape of the dose curve; as a rule, active = well fitted curve in the direction sought with a large enough effect in the signal ratio (not every such curve was filed as active); inconclusive = small, poorly fitted or top-dose-only effect, or a change in a side signal; inactive = flat fitted curve, though single readings scatter; the % refers to the signal ratio. Potencies beside an inconclusive call are fits to weak or partial responses and may not hold up.
Potency is read from the fitted curve at half-maximal effect.

Test: IkB Signaling;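 as to IkBa stabilization activation: 0% = basal untreated cells and 100% = reference inhibitor full response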
Conditions: ABC-DLBCL IkBa-CBG/CBR dual luciferase ratio (green luciferase fused to IkBa over red control in OCI-Ly3 lymphoma cells), 4 h; IkBa stabilization activation: at 57.1 µM (top of the series), scaled: untreated 0%, proteasome inhibitor 100% unless noted
Method in brief: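 In this assay, an IκBα–CBG68 fusion accumulates when IKK-driven degradation is blocked; native CBR normalizes for cell number. OCI-Ly3 cells were treated 4 h with compound and doxycycline, then green and red light read after Chroma-Glo addition.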
For `CCOc1ccc(C(=O)NCCc2sc(-c3ccc(F)cc3)nc2C)cc1`, the IkBa stabilization activation was inconclusive: -1.98% [signal inhibitor].
In the case of `CCOC(=O)c1ccc(NC(=O)CN2C(=O)c3cccnc3Sc3ccccc32)cc1`, the IkBa stabilization activation is reported as inconclusive: 3.29% [signal inhibitor].
With `COc1ccc(Nc2ncc(C(=O)N3CCN(c4ccccc4OC)CC3)c3ccccc23)cc1` the IkBa stabilization activation was inconclusive: 4.55% [signal inhibitor].
In the case of `COCCn1c(-c2ccco2)nc2nc3ccccc3nc21`, the IkBa stabilization activation is reported as “inactive”.
For `Cn1c(SCc2ccccc2Cl)nc(=O)c2c1NC(=O)CC2c1cc(F)ccc1F` (configuration not stated), the IkBa stabilization activation was inconclusive: 0.668% [signal inhibitor].
In the case of `CCCC(=O)Nc1ccc(NC(=O)c2ccccn2)cn1`, the Potency is reported as inconclusive: 25.1 µM [signal inhibitor, partial curve].
For `COc1ccc(C2C(C(=O)NCc3ccccn3)c3cc(OC)c(OC)cc3C(=O)N2C)cc1` (configuration not stated), the IkBa stabilization activation was “inactive”.
For `O=C(Cn1cc(S(=O)(=O)c2ccccc2)c(=O)c2cc3c(cc21)OCO3)Nc1ccccc1`, the IkBa stabilization activation was inconclusive: 16.4% [signal inhibitor].
For `O=C(NCCCc1ccccc1)c1nn(-c2ccccc2)nc1CO`, the IkBa stabilization activation was inconclusive: -1.22% [signal inhibitor].
With `CC(C)[C@@H](CC(=O)N[C@@H]1CCCC[C@H]1C(=O)N[C@H](CC(=O)N[C@@H](CCC(=O)O)CC(=O)O)Cc1ccccc1)NC(=O)C[C@H](CO)NC(=O)[C@@H]1CCCC[C@H]1N` the IkBa stabilization activation was “inactive”.
For `CCc1ccc2occ(CC(=O)Nc3sc4c(c3C(=O)NCCOC)CCCC4)c2c1`, the IkBa stabilization activation was “inactive”.
With `Cc1nc2nc(SCC(=O)NC3CCC(C)CC3)nn2c(C)c1Cc1ccccc1Cl` (configuration not stated) the IkBa stabilization activation was inconclusive: 5.25% [signal inhibitor].
With `CCn1cc2nc(SCc3cccc(C)c3)n(CCc3ccccc3)c(=O)c2n1` the IkBa stabilization activation was inconclusive: 6.68% [signal inhibitor].
With `Cc1nc2c(-c3ccccc3)c(C)nn2c(C)c1CCC(=O)NCc1ccccc1` the IkBa stabilization activation was inconclusive: 1.7% [signal inhibitor].
With `Cc1ccc(S(=O)(=O)n2nc(-c3ccco3)nc2NCc2ccc(N(C)C)cc2)cc1` the IkBa stabilization activation was inconclusive: 1.24% [signal inhibitor].
For `CCc1ccc2oc(-c3ccc(C)c(NC(=O)c4ccc(C#N)cc4F)c3)nc2c1`, the Potency was inconclusive: 15.8 µM [signal inhibitor, partial curve].
In the case of `C/C=C1\CC2C=CC1C2` (configuration not stated), the IkBa stabilization activation is reported as “inactive”.
In the case of `Cc1cc(NCc2ccc(Cl)cc2)n2cnnc2n1`, the IkBa stabilization activation is reported as inconclusive: 1.05% [signal inhibitor].
For `Cc1cccc(-c2noc(-c3ccc(NCc4cccnc4)c([N+](=O)[O-])c3)n2)c1`, the IkBa stabilization activation was inconclusive: -3.36% [signal inhibitor].
In the case of `O=C(Nc1ccc(F)cc1)c1ccc2c(c1)NC(=O)c1ccccc1S2`, the Potency is reported as inconclusive: 0.2 µM [signal inhibitor].
In the case of `CS(=O)(=O)Nc1ccccc1C(=O)Nc1cccc(Cl)c1`, the IkBa stabilization activation is reported as inconclusive: 3.15% [signal inhibitor].
For `CCOC(=O)CS(=O)(=O)c1nc(-c2ccccc2)cc(C(F)(F)F)n1`, the IkBa stabilization activation was inconclusive: -2.67% [signal inhibitor].
With `CCC(=O)Nc1cccc(OCc2cc(=O)n3cc(C)ccc3n2)c1` the IkBa stabilization activation was inconclusive: -2.07% [signal inhibitor].
In the case of `c1ccc(-c2cn3c4c(sc3n2)CCCC4)cc1`, the Potency is reported as inconclusive: 25.1 µM [signal inhibitor, partial curve].
With `CCN(CC)C(=O)COc1ccc(-c2ccccc2)cc1` the IkBa stabilization activation was inconclusive: 5.19% [signal inhibitor].
For `COc1ccc(OC)c(NC(=O)c2c(NCc3ccc(N(C)C)cc3)sc3c2CCCC3)c1`, the IkBa stabilization activation was “inactive”.
With `COc1ccc(NC(=O)c2oc3ccccc3c2NC(=O)C23CC4CC(CC(C4)C2)C3)cc1` the IkBa stabilization activation was inconclusive: 0.548% [signal inhibitor].
In the case of `O=C(Nc1nc2c(Cl)cccc2s1)c1ccc(Br)o1`, the Potency is reported as inconclusive: 3.98 µM [signal inhibitor, full curve].
For `O=C(NCc1ccccc1Cl)c1ccc(NC(=O)N2CCSc3ccccc32)cc1`, the IkBa stabilization activation was inconclusive: 0.299% [signal inhibitor].
For `COc1ccc(S(=O)(=O)N(CC(=O)Nc2ccc3c(c2)OCO3)c2ccc(C)cc2)cc1`, the IkBa stabilization activation was inconclusive: 3.26% [signal inhibitor].
In the case of `COc1cc(OC)cc(C(=O)Nc2ccc3c(c2)n(C)c(=O)c(=O)n3C)c1`, the IkBa stabilization activation is reported as inconclusive: 3.04% [signal inhibitor].
With `Cc1ccc(Cl)cc1NC(=O)Cn1c(=O)n(Cc2ccccc2)c(=O)c2oc3ccccc3c21` the IkBa stabilization activation was inconclusive: 8.16% [signal inhibitor].
In the case of `CCn1cc2c(n1)-c1c(oc(C(=O)Nc3cccc(C)c3C)c1C)CC2`, the IkBa stabilization activation is reported as inconclusive: 3.3% [signal inhibitor].
With `Cc1cc(C)cc(NC(=O)CSc2oc(-c3ccccc3)nc2S(=O)(=O)c2ccccc2)c1` the IkBa stabilization activation was inconclusive: -0.119% [signal inhibitor].
With `N#Cc1c2n(c3c(=O)n(Cc4ccc(Cl)cc4)cnc13)CCCCC2` the IkBa stabilization activation was “inactive”.
With `Cc1cc(C)cc(NS(=O)(=O)c2ccc3[nH]cc(C(=O)NC4CCCCC4)c(=O)c3c2)c1` the IkBa stabilization activation was inconclusive: -3.28% [signal inhibitor].
For `Cc1ccc(N2CCN(C(=O)c3ccccc3F)CC2)c(C)c1`, the IkBa stabilization activation was inconclusive: 8.6% [signal inhibitor].
With `Cc1ccc(NC(=O)CCCn2c(=O)c3cccn3c3ccccc32)cc1C` the IkBa stabilization activation was inconclusive: 0.879% [signal inhibitor].
For `CC(C)CC(=O)n1nc(-c2cccnc2)nc1NCc1ccc(F)cc1`, the IkBa stabilization activation was inconclusive: -1.61% [signal inhibitor].
In the case of `COCCCNC(=O)c1ccc(-n2c(-c3ccccc3)cc3c2CCCC3)cc1`, the IkBa stabilization activation is reported as inconclusive: 1.01% [signal inhibitor].
For `Cc1ccc(-c2nc(-c3ccccc3)no2)c(Cl)c1`, the Potency was inconclusive: 25.1 µM [signal inhibitor, partial curve].
For `Cc1cc(C)n(-c2nc3ccccc3nc2Nc2ccc(Cl)c(C(=O)OC(C)C)c2)n1`, the IkBa stabilization activation was inconclusive: 5.04% [signal inhibitor].
For `Cc1ccc(-n2ncc3c(=O)[nH]c(SC(C)C)nc32)cc1`, the IkBa stabilization activation was “inactive”.
With `COc1ccc(OCC(=O)OCc2cc(=O)n3nc(-c4cccs4)sc3n2)cc1` the IkBa stabilization activation was “inactive”.
With `COc1ccccc1C(=O)N(Cc1nc(-c2ccc(Cl)cc2)no1)C(C)C` the IkBa stabilization activation was inconclusive: 3.08% [signal inhibitor].
In the case of `O=C(Cn1c(=O)n(-c2cccc(Cl)c2)c(=O)c2sc3ccccc3c21)NC1CCCCC1`, the IkBa stabilization activation is reported as inconclusive: 12.7% [signal inhibitor].
In the case of `Cc1ccc(OCC(=O)Nc2cccc(-c3nc4ccccc4o3)c2C)cc1C`, the IkBa stabilization activation is reported as inconclusive: 11.5% [signal inhibitor].
For `CN(C)C(CNc1nnnn1-c1ccccc1)c1ccco1` (configuration not stated), the Potency was inconclusive: 25.1 µM [rising, single point].
In the case of `CCN(CC)S(=O)(=O)c1ccc2c(c1)nc(CCC(=O)OCC(=O)N1CCc3ccccc31)n2C`, the IkBa stabilization activation is reported as inconclusive: 3.44% [signal inhibitor].
With `O=C(Nc1ccc(S(=O)(=O)Nc2cnc3ccccc3n2)cc1)c1ccc(Br)o1` the IkBa stabilization activation was inconclusive: 3.88% [signal inhibitor].
For `COc1ccccc1NC(=O)c1c(NC(=O)COc2ccccc2)sc2c1CCCCC2`, the IkBa stabilization activation was inconclusive: 6.37% [signal inhibitor].
For `O=C(CSCc1ccc(F)cc1)N1CCN(c2ccc(Cl)cc2)CC1`, the IkBa stabilization activation was inconclusive: -0.00619% [signal inhibitor].
With `Clc1ccc(CN2CCC(CNc3ncnc4onc(-c5ccc(Cl)cc5)c34)CC2)cc1` the IkBa stabilization activation was inconclusive: -1.73% [signal inhibitor].
For `Fc1ccc(NCc2nnc(SCc3nnc(-c4ccccc4)o3)n2Cc2ccccc2)cc1`, the IkBa stabilization activation was inconclusive: 2.42% [signal inhibitor].
In the case of `O=C(OCC#CCSc1nnc(-c2ccncc2)o1)c1cccs1`, the IkBa stabilization activation is reported as “inactive”.
In the case of `Cc1cc2nc(-c3cccc(NC(=O)C(C)C)c3C)oc2cc1C`, the IkBa stabilization activation is reported as “inactive”.
For `COc1cc(OC)c(OC)cc1/C=C/c1nc2cc3ccccc3cc2c(=O)n1-c1ccc(F)c(Cl)c1`, the Potency was inconclusive: 31.6 µM [signal inhibitor, single point].
For `O=C(OC1CCOC1=O)c1ccc(-c2nc3ccccc3s2)s1` (configuration not stated), the Potency was inconclusive: 20 µM [signal inhibitor, partial curve].
For `COC(=O)Cc1c(C)nc2nc(-c3ccccc3)[nH]n2c1=O`, the IkBa stabilization activation was “inactive”.
With `COCCCn1c(-c2ccco2)nc2ccccc2c1=O` the IkBa stabilization activation was “inactive”.
For `CCC(=O)NC1(C(F)(F)F)C(=O)NC(C)=C1C#N` (configuration not stated), the Potency was inconclusive: 25.1 µM [signal inhibitor, partial curve].
For `O=C(c1ccc2c(c1)N(Cc1ccccc1F)C(=O)c1ccccc1S2(=O)=O)N1CCN(c2ccccc2F)CC1`, the IkBa stabilization activation was inconclusive: 1.01% [signal inhibitor].
For `CCN(CC)C(=O)c1sc2c(c1C)c(=O)n(CCc1ccccc1)c(=O)n2Cc1ccc(F)cc1Cl`, the IkBa stabilization activation was inconclusive: 0.0203% [signal inhibitor].
In the case of `O=C1OCCC1Sc1nnc(-c2ccc(Br)cc2)o1` (configuration not stated), the Potency is reported as inconclusive: 15.8 µM [signal inhibitor, partial curve].
With `O=C(CCC1N=C2c3ccccc3N=C(SCc3cccc(Cl)c3)N2C1=O)N1CCN(c2ccccc2)CC1` (configuration not stated) the IkBa stabilization activation was inconclusive: 5.59% [signal inhibitor].
In the case of `O=C(OCC(=O)N1CCN(c2ccccc2)CC1)c1ccc2ncsc2c1`, the IkBa stabilization activation is reported as inconclusive: 3.73% [signal inhibitor].
With `COc1cc2[nH]c(=O)n(CCC(=O)N3CCN(c4ccc(Cl)cc4)CC3)c(=O)c2cc1OC` the IkBa stabilization activation was inconclusive: 3.2% [signal inhibitor].
